Assay results published in article PMC6397201, “Purification of cross-linked RNA-protein complexes by phenol-toluol extraction” (Nature Communications, 2019).

Biological target: the molecule itself
Test: SDS-PAGE and western blot (oligomer that resists SDS-PAGE); Salmonella Typhimurium SL1344 Hfq::x3FLAG, with or without UV 254 nm, Hot-PTex at 65 °C, RNase treatment; anti-FLAG western blot

B1: Hfq protein, chromosomally FLAG-tagged (Salmonella Typhimurium SL1344 Hfq::x3FLAG) (natural protein)
chain: not shown
notes: printed as a 17-kDa protein that forms a homo-hexamer; Cells were UV-irradiated (254 nm), so residual cross-linked RNA fragments may be on the protein; also called Hfq-FLAG; source: endogenous locus, chromosomally FLAG-tagged, Salmonella Typhimurium SL1344; whole cells and Hot-PTex fraction
- stoichiometry N: 6
